# The supplement of paper PMC11417369
# ± gives the standard deviation of the averaged measurements. Some of the results follow.
# Test system: PfAP2-I AP2 domain 3 (GST-tagged)
# Test: gcPBM binding intensity (ln(normalized median fluorescence intensity)); higher = stronger DNA binding
# How it was run: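 Binding intensity is defined as the maximum Masliner-normalised natural-log median intensity across replicate spots for either probe orientation. It was measured on an Agilent 4 × 180k array of primer-extended double-stranded 36-bp intergenic genomic probes and negative controls, to which GST-tagged P. falciparum DNA-binding domains made in E. coli were applied for 1 h in 1× PBS with 1% milk, 0.2 mg/ml BSA, 0.5% salmon testes DNA and 0.03% Triton X-100. Detection was by Alexa488 anti-GST antibody and scanning at 488 nm.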
row,Sequence,gcPBM binding intensity (ln)
1,TCATAGTATGGACACACACACACACCCATATATATA [CACACA_site5033],8.35 ± 0.72
2,TTTCCATATTTTTAAAGTACATATTTCCGTTTCCAC [XGTACX_site7832],7.83 ± 0.78
3,ACATATAATATAAAGTGTACAAGAAAATAAAAATAA [XGTACX_site1273],8.05 ± 0.59
4,ACATATTAAAATATATGTACATAAAATATGAAAAAA [XGTACX_site5869],8.14 ± 0.4
5,ATATTTATTCCTTTTGGTACACAAAAAAAAAAAAAA [XGTACX_site8126],8.09 ± 0.32
6,AATTATTTCTTTTACACATGCAATATTTAATTAAAA [TGCATGCA_site598],8.43 ± 0.42
7,TTTAAATGCTTTTTGTGGTGACTTATCCTTTCATAA [XGTACX_negctrl_site109],7.73 ± 0.48
8,AATTTAAGCAGAACATATATATATATATATATAAAG [CACACA_negctrl_site769],8.09 ± 0.62
9,TATATGCTATAATATACACACATACCTATATTTATA [CACACA_site6383],7.84 ± 0.49
10,GTTAGGATAGATTAGACATGCACATAAATGCACTTC [TGCATGCA_site561],11.1 ± 0.34
11,TTTTTATAGAATTTAACACACATTTCATATAAAAAA [CACACA_site7453],7.86 ± 0.47
12,TTAAAATTCAAAAAAAAAAATCAGAATATCAGAAAA [CACACA_negctrl_site1361],7.22 ± 0.74
13,TATATAACATAATATACACACATTATATGCGTAATT [CACACA_site6098],7.75 ± 0.36
14,GATATATAAATAAATACACACATAAAATAGAAATAT [CACACA_site6881],7.89 ± 0.68
15,ATTAAAGAAATATATACACACATTATGGGGGAATAA [CACACA_site178],8.63 ± 0.26
16,TGCTACATAATATGTACACACATATACATATTTATA [CACACA_site6545],7.95 ± 0.29
17,TATCACATTTATGAGAGTACATAATTAATTCATGAT [XGTACX_site7850],7.55 ± 0.25
18,GTATGATTAAATAAAGGTACACTTATATTTATTTAT [XGTACX_site6966],7.87 ± 0.3
19,CATAATACAAATGTGATACCTGAAAATGACTTATTA [CACACA_negctrl_site994],7.38 ± 0.61
20,TTCTTTTTTGTAATAACACACACACTAACAGAAAAA [CACACA_site8646],8.45 ± 0.3
21,GAATTAATTTTAAAACGTACATGGGTGTATTTACAC [XGTACX_site5939],8.41 ± 0.26
22,ATTGATACATCCAATACACACTACAGATAATGATGT [CACACA_site5098],7.71 ± 0.61

row,Sequence,gcPBM binding intensity (ln)
1,GTAATAAATTAAATATGTACATATTAAAATTAAGGA [XGTACX_site2290],7.88 ± 0.34
2,CAATTTTTATGTGTGTGTACTCATTTGTTTTATAAA [XGTACX_site406],8.12 ± 0.38
3,TTGGAATAATATAAATAAATAAATATATATATATAT [CACACA_negctrl_site900],9.05 ± 0.28
4,ATACAACAGATATATACACACATATAACAATAATAA [CACACA_site7560],8.04 ± 0.42
5,TTTCTTTTTGTTCGTGTACACACATGAAATTTATAA [CACACA_site8466],8.98 ± 0.57
6,AAAAAAAAAAAATGTGCACACGCGTACACCCAAAAA [CACACA_site8614],9.12 ± 0.4
7,AATTATACATATATTTAACACACATTTTATAAAGTG [CACACA_site8362],7.85 ± 0.44
8,ATATATATATATAATTGTACATGTGTGTATAATTTG [XGTACX_site2417],9.325 ± 0.064
9,TTTTATTTTATATAACAACAAAATGGAAATATATAT [GTGCAC_negctrl_site71],7.89 ± 0.59
10,ATATTATGAAGGGATATTTTCAAAAATATTAGGAGA [CACACA_negctrl_site942],7.89 ± 0.64
11,TAAATGAAAATAAATTAACACACAATTTTAATATTG [CACACA_site8360],7.37 ± 0.55
12,GTCAATATTTAGATATGTACTAAGGAGTGCTATATA [XGTACX_site222],10.2 ± 0.55
13,ATTTATTTTAATTTTTTTTTTTCTCTTTTGGATCTA [CACACA_negctrl_site1408],7.21 ± 0.86
14,AATGAATTTAATTCTACTATTTTTTTTTTAAATATT [XGTACX_negctrl_site296],7.24 ± 0.79
15,TGTAATATGAAATGTGTACACACGCACCCACAAAAA [CACACA_site8948],9.31 ± 0.23
16,TTCTCAAAGTTTACGTGTACATAAATTATATAAATG [XGTACX_site2622],8.04 ± 0.15
17,ATTAGGCATATTTTCTGTACACAATAATAAAAAAAA [XGTACX_site3957],8.09 ± 0.24
18,ATATATATATATGCATGTACATATATTTGTTATATC [XGTACX_site3197],9.22 ± 0.27
19,TTCCCTTATTTTGTATGTACACAATTTATCATGTTG [XGTACX_site2896],8.29 ± 0.59
20,AAACAAAGGGAACATGTGCACTTACAAAAAAAAAGA,9.78 ± 0.28
21,AATAGATATATAAATACACACAAACATACCTATATA [CACACA_site7823],7.67 ± 0.45
22,TCACACCTTTTTGGTTGTACTTAAATTTCTTTTTTT [XGTACX_site6438],7.58 ± 0.44

row,Sequence,gcPBM binding intensity (ln)
1,AATTTCTTCCATTGTAGTACTCAATTTTTTTTTGTT [XGTACX_site5847],8.12 ± 0.6
2,CACATATACAAAAAGAAATGTTTAGTTGAAAATTAA [CACACA_negctrl_site1407],7.31 ± 0.51
3,GTGTAATATTATATATATATATATAATATATATACA [CACACA_negctrl_site263],7.97 ± 0.28
4,AAAAAAAAAAAAATGGTGCAACTTTGTTAAAGGAAA [GTGCAC_site9950],9.56 ± 0.12
5,ATTAAATACATTAACACACACACAAATAAATACATA [CACACA_site5583],7.91 ± 0.3
6,TTTTATTATTTGTCTTGTACTCATTGTAAGAGTATG [XGTACX_site1538],7.81 ± 0.41
7,GACAGATTATAGCATAGTACTCATACATACATACAT [XGTACX_site1252],8.86 ± 0.37
8,TACATACATACATACACACACACATCTATATTTATA [CACACA_site6171],8.9 ± 0.55
9,TTTCAAAAATTATTTTGTACATATAATTAATATACG [XGTACX_site512],7.54 ± 0.29
10,TAAACTATATTTACATGTACATATAATATTAAATAA [XGTACX_site3528],7.7 ± 0.3
11,CCTATAAAACCATATACACACATATAAATAAAAAAA [CACACA_site7809],7.75 ± 0.4
12,TGATAATAAGCATACACACACACACCCAAAAAAAAA [CACACA_site721],8.26 ± 0.32
13,TATTACATTATTCAAAAAAATTTATATGGTTATAGG [CACACA_negctrl_site1657],7.5 ± 0.39
14,ATATATATATATATATATATATATATGATTATTACT [GTGCAC_negctrl_site109],9.21 ± 0.6
15,AAATAAAAAAAAAAAAAAAATAACTTAAATGGGATA [TGCATGCA_negctrl_site595],7.2 ± 0.45
16,AACTAAATGTTATTCGCACACGGAATTTATTTAATG [CACACA_site3664],7.96 ± 0.59
17,TTTTTTTTTTCTTTTTTTCTCATGAAATTCTAAATG [CACACA_negctrl_site918],7.88 ± 0.57
18,ATTAATATGAATAAAACACACATATATAACTTGTAA [CACACA_site6989],7.64 ± 0.46
19,AATTATACTCACGTTACACACACACTATAAATATAT [CACACA_site7863],8.43 ± 0.68
20,AAAAATTTGGCATACACACACACACGCACACGCACA [CACACA_site6422],8.54 ± 0.25
21,TATATATGGGTACTAATTCCTTTAATTTCTTTAATT [CACACA_negctrl_site949],7.58 ± 0.46
22,TAGTAAAAGATATACACACACCAAAAAATATAATTA [CACACA_site7142],7.79 ± 0.57

row,Sequence,gcPBM binding intensity (ln)
1,AATTATATTCAAAATGGTACACACAATATTTAATTG [XGTACX_site5521],7.81 ± 0.34
2,AAAAAAAAATTAGGGGTGCCATTTGCTGCTGTGCTT [GTGCAC_site9913],9.04 ± 0.15
3,TTTTGTATTTCTCACACACACATAAGTAAACAATAA [CACACA_site5105],8.08 ± 0.49
4,ATAATTCATGTTTAGTGTACAAAAAATTAAAGCAAC [XGTACX_site8891],8.63 ± 0.38
5,TATATATATATAATATGTACATATATATATTCTTAA [XGTACX_site6154],9.01 ± 0.11
6,AAATAATTTATATGTAGTACATGTTGTAGATAATTT [XGTACX_site1031],8.16 ± 0.28
7,ATGCATCATTTATTTGCACACCTATTATATACTTTT [CACACA_site2097],10.1 ± 0.25
8,TGATTATATAAAAAAAAGAAAAAAAAAAAAAAAAAA [CACACA_negctrl_site819],8.22 ± 1.2
9,TTATGATAACTTTGCACACACTTAGGAAAAGTTATG [CACACA_site6836],8.79 ± 0.19
10,ATCTTTATTTTTAGCGCACACATAAAATAATAATAA [CACACA_site3458],10.2 ± 0.55
11,CAAAGCATTTTATCTACACACATATATAAATAAATA [CACACA_site7500],7.62 ± 0.39
12,TTTTTTTTTTTATGTGCACACAAAAGATGCTTATAT [CACACA_site2347],10.1 ± 0.28
13,TGATGCAAGATATATACACACATATAAATATAAATA [CACACA_site7429],7.67 ± 0.6
14,TATTTTAACTTTTTTTCCTTTATTCATTTTTTTTTC [CACACA_negctrl_site971],7.57 ± 0.79
15,AAATATATATATATATGTACACACACACATATAAAT [XGTACX_site847],8 ± 0.43
16,CACACTAAAAGACACACACACACACGCATATAAATA [CACACA_site7874],8.14 ± 0.25
17,ATTAAACATACATATACACACACACCCACCCACCCA [CACACA_site8057],8.63 ± 0.48
18,TAGTGTAAAAAATACGCATGTGTACAAATATAATAA [TGCATGCA_site498],8.22 ± 0.44
19,TTGTAGGAATTTATTTTGACTGATAATTAATACGTT [GTGCAC_negctrl_site46],7.38 ± 0.57
20,TAAAGGTGTAAAACTGCATGCTGGAGAAAAGTAAAA [TGCATGCA_site591],8.24 ± 0.95
21,AATAATACGTTAAATGTTCTTACAAGTTGGTTTCAT [CACACA_negctrl_site1029],7.66 ± 0.46
